Test results from PubChem BioAssay AID540267 (National Center for Advancing Translational Sciences (NCATS), 2011).
The whole screen tested about 340,000 compounds, of which about 530 (0.16%) were called active. Inconclusive means that the source gave no clear call. Such entries were picked first, then a sample of the others. Rule as the data show it: active = activity change below about -80%; inconclusive = between about -30% and that limit; inactive = weaker than that.

Test: Small Molecules that selectively kill Giardia lamblia: qHTS;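 also: parasites exposed to compound for two days anaerobically before the ATP read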
Conditions: Giardia lamblia trophozoite viability; at 7.66 µM; hits give low values
In short: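 Giardia trophozoites, 100 cells per well, were exposed to compounds for 48 hrs at 37 deg C under anaerobic conditions; viability was then read as ATP content by bioluminescence after 15-30 min at room temperature.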
% is scaled to controls: 0 for no effect and ±100 for the full control effect.

| Structure (SMILES) | activity change |
| --- | --- |
| Clc1ccc(-c2nnc(-c3cccc4ccccc34)o2)cc1 | inconclusive: -43.3% [inhibitor] |
| Cc1ccc(NC(=O)Cn2ncc3c([nH]c4ccccc43)c2=O)cc1Cl | inconclusive: -42.6% [inhibitor] |
| CSc1nc(-c2ccccc2)nc(NC(=O)c2ccccc2)c1C(C)=O | inconclusive: -34% [inhibitor] |
| Cc1cccc(N2CCc3c2nc2ccc(Br)cc2c3N)c1 | inactive: 5.33% |
| CN(C(=O)c1ccc(NC(=O)Cc2ccc(NC(=O)C3CCN(S(=O)(=O)c4cccc([N+](=O)[O-])c4)CC3)cc2)cc1)C1CCCC1 | inconclusive: -40.9% [inhibitor] |
| CCCC(NC(=O)Cc1c(C)c2c(cc(C)c3c(C)coc32)oc1=O)C(=O)O (centres undefined) | inactive: -8.12% |
| CCN(CC)S(=O)(=O)c1cccc(-c2nnc(SCC(=O)c3cc(C)n(C)c3C)o2)c1 | inactive: -3.16% |
| CCC(C(=O)OC)n1c(-c2ccccc2)nc2ccccc2c1=O (centres undefined) | inconclusive: -52.4% [inhibitor] |
| Nc1ccc2nc(SCC(=O)N3CCN(c4ccccc4)CC3)sc2c1 | inactive: 12.1% |
| Cc1c(O)c(=O)ccn1C | inconclusive: -31.3% [inhibitor] |
| O=C(COC(=O)c1cccnc1Cl)Nc1ccc(N2CCCCC2)cc1 | inconclusive: -39.5% [inhibitor] |
| Cc1ccccc1-n1nc2c(c1NC(=O)CCCl)CSC2 | inconclusive: -36.1% [inhibitor] |
| Cc1ccc(O)c(NC(=O)c2noc(C(C)C)c2[N+](=O)[O-])c1 | inconclusive: -32.3% [inhibitor] |
| CCCCN1C=CC(=C2C(=O)c3ccccc3C2=O)C=C1 | active: -95.1% |
| Cc1ccc(NS(=O)(=O)c2cccc(C(=O)NNC(=O)NC3CCCCC3)c2)c(C)c1 | inconclusive: -31% [inhibitor] |
| Cc1nc(NC(=O)c2ccccc2)sc1-c1csc(Nc2ccc(C(=O)O)cc2)n1 | inconclusive: -41.4% [inhibitor] |
| Cc1ccc(/C=C/C(=O)c2ccc(O)cc2)cc1 | inconclusive: -42.9% [inhibitor] |
| CC1(C)CC2CC(C)(CN2S(=O)(=O)c2cccc(C(N)=O)c2)C1 (centres undefined) | inconclusive: -31.8% [inhibitor] |
| CC(C)(C)NC(=O)C(c1ccc(-c2ccccc2)cc1)N(C[C@H]1CC[C@@H]([C@@H]2CC[C@H](CO)O2)O1)C(=O)c1ccc2ccccc2c1 (some centres undefined) | inconclusive: -35.1% [inhibitor] |
| Nc1nc(SCc2ccc(Cl)cc2)ns1 | inconclusive: -38% [inhibitor] |
| CCOC(=O)c1sc2nc(C)nc(SCC(=O)NC3CCS(=O)(=O)C3)c2c1C (centres undefined) | inactive: 3.64% |
| Cc1oc2ccc(OS(C)(=O)=O)cc2c1C(=O)OC(C)C | inactive: 12.4% |
| CC(C)C[C@H](NC(=O)c1[nH]cnc1C(=O)Nc1ccc(Cl)cc1)C(=O)OC(C)(C)C | inconclusive: -30.9% [inhibitor] |
| COc1ccc(NC(=O)Cn2c(=O)n(CCC(=O)NCC3CCCO3)c(=O)c3cc(OC)c(OC)cc32)cc1 (centres undefined) | inconclusive: -37.7% [inhibitor] |
| CC(=O)N1c2ccc(S(=O)(=O)NCCC(=O)Nc3ccc(C)c(F)c3)cc2CC1C (centres undefined) | inactive: 6.5% |
| CCC(=O)c1ccc(/C=C/c2nc3ccccc3n2C)o1 | inconclusive: -35.9% [inhibitor] |
| Cc1nc(SCC(=O)NNC(=O)c2ccc(F)cc2)c2ccccc2n1 | inactive: -6.16% |

| Structure (SMILES) | activity change |
| --- | --- |
| Cc1ccc(C)c(NC(=O)CCN2CC(C)CC(C)C2)c1 (centres undefined) | inactive: -2.66% |
| CCCCC(=O)NC(c1ccccc1OC)c1ccc2cccnc2c1O (centres undefined) | inconclusive: -37.3% [inhibitor] |
| Cc1cc(C)nc(NC(=O)/C=C/c2ccc3c(c2)OCO3)c1 | inconclusive: -38.2% [inhibitor] |
| CCOC(=O)CN1C(=O)S/C(=C/c2ccc(O)c([N+](=O)[O-])c2)C1=O | inconclusive: -41.3% [inhibitor] |
| CCOc1ccc(N2C(=O)CC(NCC#N)C2=O)cc1 (centres undefined) | inactive: -4.2% |
| OC(CNc1nc(-c2cccnc2)nc2ccccc12)c1ccccc1 (centres undefined) | inactive: -9.1% |
| CCOc1ccccc1N1CC(C(=O)N2CCN(Cc3ccc(C#N)cc3)CC2)CC1=O (centres undefined) | inactive: -1.36% |
| Cc1cccc(C(=O)NC(=S)NC(C)c2ccccc2)c1 (centres undefined) | inactive: -1.14% |
| Cc1nc2ccc(-c3nc4cc(N)ccc4o3)cc2[nH]1 | inconclusive: -56.4% [inhibitor] |
| Cc1nn(Cc2noc(C(=O)NCc3ccccn3)n2)c(C)c1Br | inconclusive: -31.3% [inhibitor] |
| CCOc1ccc(N(CC(=O)NC2CCCC2)C(=O)CCC(=O)Nc2nccs2)cc1 | inconclusive: -33.6% [inhibitor] |
| O=C1OCCN1/N=C/c1ccc([N+](=O)[O-])o1 | active: -92.2% |
| Cc1cc(C)n2nc(S(=O)(=O)NCCc3ccccc3)nc2n1 | inconclusive: -36.3% [inhibitor] |
| CCOC(=O)c1c(C)oc2cc(Br)c(OC(=O)N3CCOCC3)cc12 | inactive: 11.5% |
| Cc1ccc(C(=O)Nc2ccc3ccccc3c2)cc1 | inconclusive: -56.7% [inhibitor] |
| Cc1cc(C)n2nc(SCCC(=O)NCc3ccccc3)nc2n1 | inconclusive: -34.9% [inhibitor] |
| O=C(CCCSc1nc2ccccc2[nH]1)Nc1nnc(-c2ccccc2)o1 | inactive: -11.8% |
| CCOC(=O)c1cc2n(c1/N=C/N(C)C)-c1ccccc1C2=O | inconclusive: -32% [inhibitor] |
| NC(=O)C1=C(N=C2CCCCC2)CCCC1 | inconclusive: -32.7% [inhibitor] |
| COc1ccc(OC(=O)N2C/C(=C/c3ccccc3)C(=O)/C(=C\c3ccccc3)C2)cc1 | inconclusive: -68.5% [inhibitor] |
| COc1ccc(NC(=O)Cc2cccc3ccccc23)cc1 | inconclusive: -35.3% [inhibitor] |
| O=C1C2=C(c3ccccc31)[N+](=O)C1CCCCC1N2[O-] (centres undefined) | inactive: 10.9% |
| Cc1cc(/C=C(/C#N)c2nc3ccccc3[nH]2)c(C)n1-c1cccc([N+](=O)[O-])c1 | inconclusive: -42.1% [inhibitor] |
| CCOC(=O)/C=C1\CC(=O)Nc2nonc2N1 | inconclusive: -34% [inhibitor] |
| CCCOc1ccc(C(=O)NNC(=S)NC(=O)c2ccco2)cc1 | inconclusive: -34.8% [inhibitor] |
| Cc1ccc(C)c(-n2[nH]c3c4c(ccc3c2=O)C(=O)c2ccccc2C4=O)c1 | inconclusive: -37.8% [inhibitor] |
| CC12CCC(=O)N1C(C(=O)OCc1c(Cl)cccc1Cl)CS2 (centres undefined) | inconclusive: -32.1% [inhibitor] |

| Structure (SMILES) | activity change |
| --- | --- |
| COc1ccc(S(=O)(=O)N2CCN(C(=O)CN3C(=O)NC(C)(c4ccc5ccccc5c4)C3=O)CC2)cc1 (centres undefined) | inactive: 6.11% |
| CCNc1nc2c(c(=O)[nH]c(=O)n2C)n1CC(C)C | inconclusive: -32.5% [inhibitor] |
| Cc1ccc(OCC(O)CNCc2ccc(F)cc2)cc1 (centres undefined) | inconclusive: -32.6% [inhibitor] |
| Cc1cccc([C@@H](NC(=O)OC(C)(C)C)C(=O)OC(C)(C)C)c1 | inactive: 7.35% |
| Cc1ccc(/C=N/Nc2ccnc3cc(Cl)ccc23)c(C)c1 | active: -87.9% |
| O=C(Nc1ccc2c(c1)OCO2)N1CCN(Cc2ccco2)CC1 | inconclusive: -37.4% [inhibitor] |
| CCOCCCNS(=O)(=O)c1ccc(Br)cc1 | inconclusive: -30.3% [inhibitor] |
| CN(C)S(=O)(=O)N(CC(=O)N1CCC(Cc2ccccc2)CC1)c1ccccc1 | inactive: -28.2% |
| CCNC(=S)N1CCC(NC(=O)c2ccco2)CC1 | inconclusive: -39.5% [inhibitor] |
| O=C(O)CSc1ncnc2sc3c(c12)CCCC3 | inactive: -10.2% |
| COc1ccc(NC(=O)CCNS(=O)(=O)c2ccc3c(c2)CC(C)N3C(=O)C2CC2)cc1 (centres undefined) | inactive: 7.61% |
| Cc1cc(=O)[nH]c2nnc(-c3ccc(Br)cc3)n12 | inconclusive: -76.6% [inhibitor] |
| O=C(NCCc1ccccc1)c1ccc2c(c1)OCCCO2 | active: -89.4% |
| CN(C)CCNC(=O)c1csc(Nc2cccc3ccccc23)n1 | inactive: 32.2% |
| Cc1cc(=O)oc2cc(OCC(=O)N3CCN(C(=O)C4COc5ccccc5O4)CC3)ccc12 (centres undefined) | inconclusive: -33.5% [inhibitor] |
| CN(C)c1ccc(P(=O)(Nc2ccc([N+](=O)[O-])cc2)N2CCOCC2)c(NC(=O)c2cccs2)c1 (centres undefined) | inconclusive: -35.1% [inhibitor] |
| COc1cc(NC(=O)C2CCC(CNS(=O)(=O)c3csc(C(N)=O)c3)CC2)cc(OC)c1 (centres undefined) | inconclusive: -32.8% [inhibitor] |
| CCN(CC)S(=O)(=O)c1ccc2oc(Nc3ccccc3)nc2c1 | inconclusive: -33.4% [inhibitor] |
| CC(Nc1nc(N2CCCCC2)nc2ccccc12)c1ccccc1 (centres undefined) | inactive: 7.08% |
| COc1ccc(S(=O)(=O)N=Nc2c(O)[nH]c3ccccc23)cc1 | inactive: -8.41% |
| Oc1ccc(C[C@H]2CNCCN2CCc2cc(C(F)(F)F)cc(C(F)(F)F)c2)cc1 | inconclusive: -31.4% [inhibitor] |
| COc1ccccc1C(=O)NCC(=O)N/N=C/c1cc(Br)ccc1OCc1ccccc1 | inconclusive: -36.8% [inhibitor] |
| COc1cc(NC(=O)c2ccccc2Cl)ccc1NC(=O)c1cccs1 | inactive: -4.85% |
| C/C(=N\NC(=O)c1ccccc1O)C1CC1 | inactive: 4.11% |
| CCCN1C2CCCC1CC(NC(=O)c1ccccc1OC)C2 (centres undefined) | inactive: -2.77% |
